This note sets out measurements from PMC4336329 (PLoS ONE, 2015).

Molecules are shown by their SMILES. Screen size: about 310,000 compounds; about 2,200 (0.71%) showed an effect of 50% or more. The effect is printed as a negative number. This is one part of the list.

Chain of human ether-à-go-go-related gene (hERG) potassium channel (Q12809 whole entry, looked up): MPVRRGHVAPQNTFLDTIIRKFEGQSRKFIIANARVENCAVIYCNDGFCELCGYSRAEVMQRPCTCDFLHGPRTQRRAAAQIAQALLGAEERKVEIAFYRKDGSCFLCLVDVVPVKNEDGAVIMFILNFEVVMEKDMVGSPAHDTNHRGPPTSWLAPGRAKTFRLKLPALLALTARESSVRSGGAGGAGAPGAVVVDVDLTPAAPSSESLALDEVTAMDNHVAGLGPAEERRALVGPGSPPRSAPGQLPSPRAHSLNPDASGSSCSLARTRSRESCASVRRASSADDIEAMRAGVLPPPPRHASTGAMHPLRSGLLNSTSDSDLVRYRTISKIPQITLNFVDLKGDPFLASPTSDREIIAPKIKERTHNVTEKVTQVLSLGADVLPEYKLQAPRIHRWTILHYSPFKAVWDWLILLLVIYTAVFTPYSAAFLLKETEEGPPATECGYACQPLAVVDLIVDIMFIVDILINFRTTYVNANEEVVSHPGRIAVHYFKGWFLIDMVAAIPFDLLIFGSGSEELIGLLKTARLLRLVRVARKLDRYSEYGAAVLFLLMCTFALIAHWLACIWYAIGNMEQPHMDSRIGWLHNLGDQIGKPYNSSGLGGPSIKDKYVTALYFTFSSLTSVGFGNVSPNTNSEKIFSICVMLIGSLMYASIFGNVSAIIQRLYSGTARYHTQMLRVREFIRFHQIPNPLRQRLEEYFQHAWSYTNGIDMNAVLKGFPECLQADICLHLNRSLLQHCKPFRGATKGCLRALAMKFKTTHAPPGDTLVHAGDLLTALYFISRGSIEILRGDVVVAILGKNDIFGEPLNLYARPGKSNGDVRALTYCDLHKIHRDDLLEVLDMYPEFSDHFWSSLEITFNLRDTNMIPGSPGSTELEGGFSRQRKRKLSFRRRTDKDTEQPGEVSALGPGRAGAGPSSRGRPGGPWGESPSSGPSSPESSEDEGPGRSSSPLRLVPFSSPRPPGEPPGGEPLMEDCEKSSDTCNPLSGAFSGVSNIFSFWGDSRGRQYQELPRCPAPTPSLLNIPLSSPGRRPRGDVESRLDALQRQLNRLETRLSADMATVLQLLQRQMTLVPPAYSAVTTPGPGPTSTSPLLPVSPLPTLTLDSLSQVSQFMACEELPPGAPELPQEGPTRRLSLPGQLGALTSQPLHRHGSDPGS

This assay addresses human ether-à-go-go-related gene (hERG) potassium channel (human, UniProt Q12809). In words: primary screen, population patch clamp on CHO cells stably expressing hERG.
Regarding `O=C(O)C1C2C=CC(O2)C1C(=O)NCc1ccc2c(c1)OCO2` (centres unmarked), the “hERG current change (%, negative = inhibition) at 1uM” value was determined as 12.4%.
For `O=S(=O)(Nc1nc2ccccc2nc1N1CCN(c2ccccc2)CC1)c1ccc(F)cc1`, the “hERG current change (%, negative = inhibition) at 1uM” value is on record as 15.3%.
Consider `CC1(C)C(=O)Nc2ccccc2N1C(=O)COC(=O)Cc1c(F)cccc1Cl`, for which the “hERG current change (%, negative = inhibition) at 1uM” value is on record as -4.56%.
For the molecule `Cc1ccccc1C(=O)/C=C1\NC(=O)CS1`, the “hERG current change (%, negative = inhibition) at 1uM” value was 6.92%.
The figure for `COC(=O)c1ccc(C23CC4(C2)[C@H](CN(Cc2ccc(-c5ccccc5)cc2)[C@@H]4c2ccccc2)C3c2ccc(Cl)nc2)cc1` (some centres unmarked) is -2.88%; for `Cc1ccc(NC(=O)Cn2nc(C)cc2C)cc1` it is 7.66%.
`CCn1cc(CN2CCN(CCc3ccccc3)C(CCO)C2)c(C)n1` (centres unmarked): the “hERG current change (%, negative = inhibition) at 1uM” value came out at 7.56%.
Consider `COc1ccc(NC(=O)Nc2ccccn2)cc1OC`, for which the “hERG current change (%, negative = inhibition) at 1uM” value was found to be 25.4%.
For `O=C(Nc1ccc2c(c1)CCC2)C1CCCN(c2ncccn2)C1` (centres unmarked), the “hERG current change (%, negative = inhibition) at 1uM” value is reported as 9.72%.
On to `COCCNC(=O)c1ccc(CS(=O)(=O)c2ccc(C)cc2)o1`, for which the “hERG current change (%, negative = inhibition) at 1uM” value is listed as -13.7%.
On to `Cc1ccc(/C=C2\Oc3c(ccc(O)c3CN3CCN(C)CC3)C2=O)cc1`, for which the “hERG current change (%, negative = inhibition) at 1uM” value was determined as 7.06%.
In the case of `Cc1ccc(Cl)cc1N1CCN(CC(O)COCc2ccco2)CC1.O=C(O)C(=O)O` (centres unmarked), the “hERG current change (%, negative = inhibition) at 1uM” value was -29.2%.
As to `Cc1cc(=O)[nH]c(NCCO)n1`, the “hERG current change (%, negative = inhibition) at 1uM” value came to 14.5%.
For the molecule `CCCc1ccc(OCCNC(=O)c2ccco2)cc1`, the “hERG current change (%, negative = inhibition) at 1uM” value is reported as -6.16%.
As to `CC(C)(C)OC(=O)CNC(=O)c1nc[nH]c1C(=O)N1CCc2ccccc2C1`, the “hERG current change (%, negative = inhibition) at 1uM” value is reported as 6.85%.
For the molecule `O=C(OCCCN=C1NS(=O)(=O)c2ccccc21)c1ccc(F)cc1`, the “hERG current change (%, negative = inhibition) at 1uM” value was 3.9%.
The figure for `Cc1nc2ccccc2c(=O)n1-c1ccc(NS(=O)(=O)c2ccc(F)cc2F)cc1` is -17.6%.
For `CN(Cc1ccccc1)C(=O)CN1C(=O)COc2ccc(S(=O)(=O)N3CCCC3)cc21`, the “hERG current change (%, negative = inhibition) at 1uM” value came out at 4.35%.
As to `Cc1ccc(OCCOCCN(C)C)c(Cl)c1.O=C(O)C(=O)O`, the “hERG current change (%, negative = inhibition) at 1uM” value is listed as 5.45%.
The figure for `Cc1nn(CCC(N)=S)c2nc(-c3cccs3)cc(C(F)(F)F)c12` is 7.18%; for `COC(=O)c1sccc1NC(=O)CCC1CCCC1` it is 6.07%.
Take `CCOC(=O)c1c(CN(C)C)n(-c2ccccc2)c2cc(Br)c(OC)cc12`: the “hERG current change (%, negative = inhibition) at 1uM” value is recorded as 3.82%.
`NC(=O)c1ccccc1NC(=O)c1ccc2ccccc2c1`: the “hERG current change (%, negative = inhibition) at 1uM” value was 17.6%.
As to `CC1Cn2c(CCc3ccccc3)nnc2S1` (centres unmarked), the “hERG current change (%, negative = inhibition) at 1uM” value is given as 9.95%.
For the molecule `O=C(O)c1cccnc1Nc1ccc(Cl)cc1`, the “hERG current change (%, negative = inhibition) at 1uM” value is given as 17.3%.
Take `COc1ccccc1NC(=O)COC(=O)CN1C(=O)C(=O)c2ccccc21`: the “hERG current change (%, negative = inhibition) at 1uM” value came to 13%.
For the molecule `COc1ccc(-c2cc(C(=O)Nc3ccc(C(N)=O)cc3)c3ccccc3n2)cc1`, the “hERG current change (%, negative = inhibition) at 1uM” value stood at 16.8%.
As for `OCC1OC(n2cnc3c(NCCc4ccccc4)ncnc32)C(O)C1O` (centres unmarked), the “hERG current change (%, negative = inhibition) at 1uM” value is reported as 14.5%.
Regarding `Cc1nc(Cc2nnc(SC(C)C(=O)N3c4ccccc4NC(=O)C3(C)C)o2)cs1` (centres unmarked), the “hERG current change (%, negative = inhibition) at 1uM” value was determined as 2.7%.
`Fc1ccc(-c2cnc(-c3cccs3)o2)cc1`: the “hERG current change (%, negative = inhibition) at 1uM” value was 21.1%.
The figure for `CCOC(=O)C1(Cc2ccccc2)CCN(Cc2cnc(N3CCOCC3)s2)CC1` is -4.93%.
Under `COC(=O)CN(C)C(=O)c1ccccc1OC1CCN(S(C)(=O)=O)CC1` stands 12.6%.
The figure for `O=C(/C=C\Nc1ccc(S(=O)(=O)Nc2ncccn2)cc1)c1cccc2ccccc12` is 8.3%.
As to `O=C(NNC(=O)c1cccc(O)c1)Nc1ccc([N+](=O)[O-])cc1`, the “hERG current change (%, negative = inhibition) at 1uM” value is recorded as 7.74%.
The figure for `Cc1ccc2ncnc(NCCCN3CCOCC3)c2c1` is 3.63%.
In the case of `NC(=Nc1ccc(Cl)cc1)c1ccccc1`, the “hERG current change (%, negative = inhibition) at 1uM” value was 7.87%.
Consider `NC(N)=Nc1nc(CCN2C(=O)c3ccccc3C2=O)cs1`, for which the “hERG current change (%, negative = inhibition) at 1uM” value was found to be 8.44%.
Under `COc1ccccc1OCc1ccc(C(=O)Nc2ccc(Cl)cn2)o1` stands 7.5%; under `O=C1Nc2ccc(F)cc2C12SCCS2`, 6.52%.
Turning to `CC1(C)CC2CC(C)(CN2CC(=O)C(C#N)c2ccccc2)C1` (centres unmarked), the “hERG current change (%, negative = inhibition) at 1uM” value is on record as 12.2%.
Regarding `COc1cc(/C=C2/C(=N)N3N=C(C)SC3=NC2=O)ccc1OS(=O)(=O)c1ccc(C)cc1`, the “hERG current change (%, negative = inhibition) at 1uM” value is reported as 14.1%.
Consider `O=C(NC(=S)Nc1ccccc1)c1ccc(-c2ccccc2)cc1`, for which the “hERG current change (%, negative = inhibition) at 1uM” value amounted to 21%.
The figure for `COc1ccc(C2/C(=C(/O)c3ccc(F)cc3)C(=O)C(=O)N2c2ccccn2)cc1OC` (centres unmarked) is 11.7%; for `CC1(C)SC2c3ccccc3C(=O)N2[C@@H]1C(=O)NC1CC1` (some centres unmarked) it is 10.9%.
On to `C/C(=N\NC(=O)Cc1ccc(O)cc1)c1cccnc1`, for which the “hERG current change (%, negative = inhibition) at 1uM” value was 17.4%.
The figure for `Cc1ccc(F)cc1NC(=O)CCc1c(C)[nH]c(=O)c(C#N)c1C` is 15.1%.
Under `COc1cc(C(N)=O)cc(Cl)c1OCc1ccccc1` stands 5.21%; under `COc1ccc(N2CC(C(=O)N3CCN(Cc4ccc5c(c4)OCO5)CC3)CC2=O)cc1` (centres unmarked), 15.4%; under `CCS(=O)(=O)Nc1cccc(-c2nc3cccnc3s2)c1C`, 9.02%.
On to `CCNc1nc(NCC)nc(C(=O)OCCO)n1`, for which the “hERG current change (%, negative = inhibition) at 1uM” value was -3.37%.
In the case of `Cc1cnc(C(=O)OC(C(=O)c2c[nH]c3ccccc23)c2ccccc2)cn1` (centres unmarked), the “hERG current change (%, negative = inhibition) at 1uM” value was found to be 11.9%.
Regarding `CCOC(=O)c1nnc2cc(-c3ccc(Br)cc3)nn2c1C`, the “hERG current change (%, negative = inhibition) at 1uM” value is 6.29%.
Under `CC(=O)CSc1ncnc2scc(-c3ccc(F)cc3)c12` stands 13.9%; under `CCOc1ccc(NC(=O)CS(=O)(=O)c2cn(C)c3ccccc23)cc1`, 16.8%; under `Cc1ccc(CN2C(=O)C(Cc3ccccc3)Nc3ncnc(N4CCN(c5ccccc5)CC4)c32)cc1.O=C(O)C(F)(F)F` (centres unmarked), 7%.
In the case of `Cc1cc(C)n(C(=O)CCCCCC(=O)n2nc(C)cc2C)n1`, the “hERG current change (%, negative = inhibition) at 1uM” value is given as 7.68%.
Under `O=C(CN1C(=O)CC(c2ccccc2)S(=O)(=O)c2ccccc21)NC1CCCC1` (centres unmarked) stands 2.76%.
With `CCn1c(SCC(=O)N2CCCCC2C)nnc1-c1ccc(S(=O)(=O)N2CCN(C)CC2)cc1` (centres unmarked), the “hERG current change (%, negative = inhibition) at 1uM” value is listed as -6.94%.
Regarding `CC(=S)c1c(C)cc2cc(C)ccn12`, the “hERG current change (%, negative = inhibition) at 1uM” value is reported as 7.89%.
`Cc1ccccc1C(=O)N1CCC(C(=O)N2CCN(S(=O)(=O)c3ccccc3F)CC2)CC1`: the “hERG current change (%, negative = inhibition) at 1uM” value is 13.1%.
In the case of `Cc1ccc(CN(C)C(=O)CCc2nc3sc4c(c3c(=O)[nH]2)CCCC4)o1`, the “hERG current change (%, negative = inhibition) at 1uM” value was 12.4%.
Consider `Cc1cc(/C=N/NC(=O)COc2cccc3cccnc23)c(C)n1-c1ccc(O)cc1`, for which the “hERG current change (%, negative = inhibition) at 1uM” value came to 9.18%.
Under `CCC(=O)n1nc(-c2ccc(OC)cc2)nc1N` stands 7.87%.
Consider `CCOC(=O)/C(C#N)=N/Nc1ccccc1C#N`, for which the “hERG current change (%, negative = inhibition) at 1uM” value was determined as 11.2%.
Consider `Cc1ccc(NC(=O)CNCC(c2ccccc2)N(C)C)cc1F.O=C(O)C(=O)O` (centres unmarked), for which the “hERG current change (%, negative = inhibition) at 1uM” value is listed as -3.58%.
With `CCOC(=O)C(CSCC(=O)c1ccc(Cl)cc1)NC(=O)OC(C)(C)C` (centres unmarked), the “hERG current change (%, negative = inhibition) at 1uM” value turned out to be 11.2%.
As for `Cc1ccc(O)c(NC(=O)c2cc([N+](=O)[O-])ccc2Cl)c1`, the “hERG current change (%, negative = inhibition) at 1uM” value is reported as -1.69%.
Under `CCOC(=O)c1c(C(C#N)C#N)cc(C)nc1C` stands 11.2%; under `COc1ccc(-c2c(C(C)=O)c(C)n(C)c2C)cc1`, 4.51%; under `CN(C)c1ccc(N=Nc2ccc(S(N)(=O)=O)cc2)cc1`, 14.5%.
Take `CCOC(=O)c1c(NC(=O)OC)sc(C(=O)N(C)C)c1C`: the “hERG current change (%, negative = inhibition) at 1uM” value is recorded as -4.56%.
Regarding `COc1ccccc1C1=NOC(CN2C(=O)c3ccccc3S2(=O)=O)C1` (centres unmarked), the “hERG current change (%, negative = inhibition) at 1uM” value worked out at 3.55%.
For `O=C(O)C1CCCCC1C(=O)NCc1ccccc1` (centres unmarked), the “hERG current change (%, negative = inhibition) at 1uM” value is reported as -4.05%.
With `CC(=O)Nc1ccc(S(=O)(=O)N[C@@H](C)C(=O)N2CCN(c3ccccn3)CC2)cc1`, the “hERG current change (%, negative = inhibition) at 1uM” value amounted to 12.5%.
Under `O=C(CSCc1ccccc1)Nc1ccc(Cl)cn1` stands 13.5%; under `O=C(CSc1nnnn1-c1ccccc1)NC(=O)Cc1ccccc1`, 15.2%; under `Cc1ccc(CN=c2c([N+](=O)[O-])nn(-c3ccc4c(c3)OCCO4)n2O)cc1`, 17.7%.
As to `COc1cccc(/C=C/C(=O)NNC(=O)c2ccncc2)c1OC`, the “hERG current change (%, negative = inhibition) at 1uM” value stood at 9.53%.
In the case of `COc1cc(-c2nc(-c3cccnc3)no2)cc(OC)c1OC`, the “hERG current change (%, negative = inhibition) at 1uM” value amounted to 11.7%.
For `CN(c1cccc(NS(=O)(=O)c2ccccc2)c1)S(C)(=O)=O`, the “hERG current change (%, negative = inhibition) at 1uM” value came to 12.2%.
For the molecule `CN(CC(=O)Nc1ccccc1Cl)C(=O)COC(=O)c1ccc(=O)n(Cc2ccccc2)n1`, the “hERG current change (%, negative = inhibition) at 1uM” value is reported as -2.75%.
For `CCOc1ccc(CN2CCNC(=O)C2CC(=O)NCc2ccccn2)cc1` (centres unmarked), the “hERG current change (%, negative = inhibition) at 1uM” value is listed as -4.45%.
For the molecule `CCc1cc(=O)oc2cc(C)cc(OC(C)C(=O)NC3CCN(Cc4ccccc4)CC3)c12` (centres unmarked), the “hERG current change (%, negative = inhibition) at 1uM” value is on record as -7.8%.
As to `CCOC(=O)C1=C(N)N2C(=O)C(C)SC2=C(C(=O)OCC)C1c1cc(OC)c(OC)c(OC)c1` (centres unmarked), the “hERG current change (%, negative = inhibition) at 1uM” value worked out at 9.5%.
For the molecule `Cc1csc(NC(=O)C2CCN(C(=O)CSc3nnc(C)n3Cc3ccccc3)CC2)n1`, the “hERG current change (%, negative = inhibition) at 1uM” value was -14.4%.
Under `CS(=O)(=O)Oc1ccc(Br)c2cccnc12` stands 7.5%.
With `C=CCn1c(SCC(=O)c2ccc(O)c(O)c2)nnc1-c1cccc(OC)c1`, the “hERG current change (%, negative = inhibition) at 1uM” value stood at 15.6%.
Take `CC(C)(C)Cc1nnc(NC(=O)c2ccc([N+](=O)[O-])cc2)s1`: the “hERG current change (%, negative = inhibition) at 1uM” value was found to be 10.7%.
With `Cc1cc(=O)[nH]c(SC(C)C(=O)Nc2cccc3ccccc23)n1` (centres unmarked), the “hERG current change (%, negative = inhibition) at 1uM” value is on record as 6.33%.
